# Measured values published in PMC4336329 (PLoS ONE, 2015).
# The whole screen tested about 310,000 compounds, of which about 14,000 (4.5%) showed an effect of 50% or more. The effect is printed as a negative number. This is one part of the list.
# Molecular target: human ether-à-go-go-related gene (hERG) potassium channel (human, UniProt Q12809)
# Test: primary screen, population patch clamp on CHO cells stably expressing hERG
# 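Further: peak tail current of the secondary pulse compared with the same well before compound.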
# Sequence of human ether-à-go-go-related gene (hERG) potassium channel (Q12809 whole entry, looked up): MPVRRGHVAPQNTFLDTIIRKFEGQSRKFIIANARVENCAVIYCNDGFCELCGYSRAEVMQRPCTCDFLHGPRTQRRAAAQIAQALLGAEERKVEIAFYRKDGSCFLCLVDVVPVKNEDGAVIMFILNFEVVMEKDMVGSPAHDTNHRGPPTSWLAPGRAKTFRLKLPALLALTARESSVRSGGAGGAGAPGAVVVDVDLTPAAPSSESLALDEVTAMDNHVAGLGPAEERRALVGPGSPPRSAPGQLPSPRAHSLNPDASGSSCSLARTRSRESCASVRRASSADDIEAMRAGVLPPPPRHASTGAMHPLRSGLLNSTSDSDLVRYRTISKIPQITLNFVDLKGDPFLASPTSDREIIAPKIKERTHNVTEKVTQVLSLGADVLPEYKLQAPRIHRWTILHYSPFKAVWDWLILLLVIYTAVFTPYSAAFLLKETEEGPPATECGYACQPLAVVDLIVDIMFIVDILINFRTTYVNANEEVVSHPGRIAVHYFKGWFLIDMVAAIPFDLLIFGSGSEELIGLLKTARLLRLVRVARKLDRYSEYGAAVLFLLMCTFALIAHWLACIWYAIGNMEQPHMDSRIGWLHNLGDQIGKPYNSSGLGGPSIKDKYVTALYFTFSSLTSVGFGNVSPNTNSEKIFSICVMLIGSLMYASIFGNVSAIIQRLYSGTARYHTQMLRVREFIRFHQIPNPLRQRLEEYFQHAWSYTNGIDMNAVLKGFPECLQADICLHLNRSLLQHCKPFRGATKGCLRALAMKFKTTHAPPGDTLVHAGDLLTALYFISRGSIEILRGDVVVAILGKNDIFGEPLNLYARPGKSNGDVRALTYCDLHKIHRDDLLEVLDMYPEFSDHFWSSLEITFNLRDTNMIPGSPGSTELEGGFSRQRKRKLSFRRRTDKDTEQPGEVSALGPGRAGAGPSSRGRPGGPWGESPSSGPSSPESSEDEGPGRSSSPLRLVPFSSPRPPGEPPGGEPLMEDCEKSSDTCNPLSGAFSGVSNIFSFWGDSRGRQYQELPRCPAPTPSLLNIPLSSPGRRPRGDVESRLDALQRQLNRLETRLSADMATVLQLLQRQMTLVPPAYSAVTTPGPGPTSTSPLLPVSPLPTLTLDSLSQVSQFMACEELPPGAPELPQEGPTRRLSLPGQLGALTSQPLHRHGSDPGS
row,SMILES,"hERG current change (%, negative = inhibition) at 10uM"
1,Cc1csc2c(=O)[nH]cnc12,8.59%
2,Cc1ccc(N2CC(C(=O)NCCS(=O)(=O)N3CCN(c4ccccc4)CC3)CC2=O)cc1 (centres unmarked),15.5%
3,CCOc1ccc(C(=O)NCC(=O)OCC(=O)N2C(C)CCCC2C)cc1 (centres unmarked),-1.33%
4,CC12CCC3c4ccc(O)cc4CCC3C1CCC2=O (centres unmarked),-4.66%
5,O=C(CSc1cn(CCNC(=O)c2ccccc2)c2ccccc12)NCc1ccco1,-10.2%
6,COC(=O)c1c(S(C)(=O)=O)nc(-c2ccccc2)[nH]c1=O,-2.13%
7,Cc1ccccc1C(=O)Nc1ccc(S(=O)(=O)Nc2onc(C)c2C)cc1,-7.96%
8,COc1cc2c(cc1OC)CN(C(=O)c1ccc(S(=O)(=O)N3CCCCCC3)cc1)CC2,-27.3%
9,Cc1nn(-c2ccccc2)c2sc(C(=O)OC3CCOC3=O)cc12 (centres unmarked),-7.55%
10,CCn1c(SCC(=O)O)nnc1-c1ccc2[nH]c(C)c(C)c2c1,-2.81%
11,COc1cc(C)ccc1S(=O)(=O)N1CCN(C23CC4CC(CC(C4)C2)C3)CC1,-11%
12,COc1ccc(N2CCN(C(=O)CSc3nnc4c(C)cc5c(C)cc(C)cc5n34)CC2)cc1,-33.8%
13,O=C(COC(=O)Cc1ccsc1)Nc1ccc(Br)cc1,11.5%
14,Cc1c(C(=O)NCc2cccs2)oc2ccc(Br)cc12,3.26%
15,O=C(c1cccs1)N1CCCC(c2ccccc2)C1 (centres unmarked),-6.92%
16,Cc1cc(NC(=O)CSc2n[nH]c(-c3ccc(Cl)cc3Cl)n2)no1,-0.823%
17,COc1ccc(C(NC(=O)C(C)C)c2c(O)ccc3ccccc23)cc1 (centres unmarked),14.7%
18,COc1ccc(OCC(=O)N/N=C(\C)CC(=O)Nc2ccc(OC)cc2[N+](=O)[O-])cc1,-93.8%
19,CCN(CC)S(=O)(=O)c1ccc(C(=O)NC2=C(C(=O)OC)SCC2)cc1,-6.75%
20,O=C(CNC(=O)c1ccco1)N=Nc1c(O)n(CCc2ccccc2)c2ccccc12,-38.3%
21,O=C(C/C=N/OCc1ccc(F)cc1Cl)c1cnc(-c2ccccc2)s1,9.13%
22,CC(C)CN(C(=O)COC(=O)CCC(=O)c1ccc(F)cc1)c1c(N)n(Cc2ccccc2)c(=O)[nH]c1=O,-11.4%

row,SMILES,"hERG current change (%, negative = inhibition) at 10uM"
1,O=C(C[n+]1ccc(C(=O)NCc2ccccc2)cc1)c1ccc(Cl)cc1.[Br-],-71.3%
2,Cc1ccc(Nc2c(-c3ccc(N4CCOCC4)cc3)nc3cnccn23)cc1,-3.6%
3,C[C@@H](C(=O)Nc1ccc2c(c1)OCCO2)n1nnc2ccccc2c1=O,16.4%
4,COC(=O)c1ccc(C(=O)OC)c(NC(=O)Oc2ccccc2)c1,17.2%
5,Cc1ccc(C)c(N2CCN(C(=O)CC3Sc4ccccc4NC3=O)CC2)c1 (centres unmarked),-0.241%
6,CCCCCn1c(N)c(-c2nc3ccccc3s2)c2c([N+](=O)[O-])nn(CC)c(=O)c21,5.78%
7,C=CCn1c(SCC(=O)Nc2ccccc2OC)nc(O)c(CC)c1=O,-7.52%
8,O=C(O)C(=O)O.O=C(c1cccc(Cl)c1)N1CCN(CCCc2ccccc2)CC1,-45%
9,CC(C)(NC(=O)c1cc(Cl)c2ccccc2c1O)C(=O)O,22.2%
10,CCn1c(-c2c[nH]c3ccccc23)n[nH]c1=S,21.9%
11,Nc1ccc(Br)cc1C(NCC(=O)O)c1ccccc1 (centres unmarked),22.9%
12,Cc1nc2sc(C(c3ccccc3)N3CCN(c4ccccc4F)CC3)c(O)n2n1 (centres unmarked),-29.4%
13,CN(CC(=O)NCCC1=CCCCC1)S(=O)(=O)c1ccc2c(c1)CCC(=O)N2,-5.37%
14,Cc1cnc(CNC(=O)CC2C(=O)NCCN2Cc2ccccc2F)cn1 (centres unmarked),10.5%
15,C[C@]12C=CC(=O)C=C1CC[C@@H]1[C@@H]2[C@@H](O)C[C@@]2(C)[C@H]1CC[C@]2(O)C(=O)COC(=O)CCC(=O)[O-].[Na+],30.8%
16,O=C(O)c1ccc(N2CCCC2=O)cc1,15.6%
17,Cc1nnc2ccc(N3CCN(c4cccc(C(F)(F)F)c4)CC3)nn12,-61.8%
18,O=C(CSc1nnc(C2COc3ccccc3O2)o1)N1CCCc2ccccc21 (centres unmarked),5.53%
19,CC12CC3(C)CC(C)(C1)CC(C(=O)NCc1ccccn1)(C2)C3,-19.2%
20,COc1cccc(CNC(=O)CCC2CCCN(c3cc(C)nc(N4CCCC4)n3)C2)c1 (centres unmarked),-75%
21,CN(C)c1nc(NCc2ccccc2)nc(N/N=C/c2ccccc2F)n1.Cl,3.33%
22,COc1ccc(C(C)C)cc1S(=O)(=O)N1CCC(C(=O)N2CCN(C)CC2)CC1,6.34%

row,SMILES,"hERG current change (%, negative = inhibition) at 10uM"
1,CSc1nnc(CCCCCCCCc2nnc(SC)o2)o1,0.0249%
2,Cn1c(-c2ccc3c(c2)OCO3)c(C(=O)O)c(=O)c2ccccc21,19.2%
3,C[C@@H](O)CC#Cc1ccc2oc(=O)c(-n3cc(-c4ccsc4)nn3)cc2c1,17.4%
4,CCOC(=O)c1c(NC(=S)NCC2CCCO2)sc(C)c1C (centres unmarked),22.8%
5,Cc1cccc(-c2n[nH]c(=S)n2/N=C/c2ccc(C)s2)c1,-0.152%
6,COc1ccc(OC)c(CCNC(=O)c2ccc(CS(=O)Cc3cccc(Cl)c3)o2)c1 (centres unmarked),-33.5%
7,O=C(COC(=O)c1ccc(Cl)nc1)NCCNC(=O)COC(=O)c1ccc(Cl)nc1,-6.45%
8,CN1c2ccccc2C(C)(C)C12CC(c1cccc(S(=O)(=O)N3CCCC3)c1)=NO2 (centres unmarked),2.91%
9,Cc1ccc(N2C(=O)C3C(C2=O)N2C(c4cccs4)C4C(=O)N(c5ccc(C)cc5)C(=O)C4N2C3c2cccs2)cc1 (centres unmarked),3.78%
10,CCN(C(=O)c1cc(Cl)ccc1OC)C1CCCCC1,-18.7%
11,C/C(=N\NC(=O)c1ccc2c(c1)OCO2)c1ccc(NC(=O)CCCC(=O)O)cc1,21%
12,CC(C)OP(=O)(OC(C)C)/C(C=O)=N\Nc1ccc([N+](=O)[O-])cc1,-55.1%
13,O=C(CN1C(=O)/C(=C/c2ccco2)SC1=S)Nc1ccc(O)c(C(=O)O)c1,25.2%
14,O=C(NC12CC3CC(CC(C3)C1)C2)c1ccc(-c2ccccc2Cl)o1,-1.37%
15,NS(=O)(=O)c1ccc(NC(=O)CN2CCCC2)cc1,3.7%
16,Cc1c(NC(=O)c2cc(-c3cccs3)on2)c(=O)n(-c2ccccc2)n1C,-29.7%
17,Cc1[nH]c2ccccc2c1-c1nc(-c2ccc(Cl)cc2)nnc1-c1ccccc1,24.3%
18,CC(C)CN(C(=O)COC(=O)CNC(=O)c1ccccc1)c1c(N)n(Cc2ccccc2)c(=O)[nH]c1=O,11.6%
19,CC(=O)N/C(=C\c1ccc(Br)s1)C(=O)O,29%
20,C(=C\c1nnc2c3ccccc3ncn12)/c1ccccc1,-21.8%
21,Cc1cccc(OCC(=O)Nc2sc3c(c2C#N)CCC3)c1,1.65%
22,CCc1nc(NCc2ccccc2)c(C#N)c2c1CCCC2,23.3%

row,SMILES,"hERG current change (%, negative = inhibition) at 10uM"
1,Cc1cc(C(=O)N2CCc3ccccc32)c2cc(F)ccc2n1,-4.52%
2,CN1CCN(Cc2cc3c(cc2[N+](=O)[O-])OCO3)CC1,2.35%
3,CCN1CCCC1CNC(=O)C1CCCN(S(=O)(=O)c2cccc3nsnc23)C1 (centres unmarked),-14.6%
4,CN(C)CCCCOc1ccc(F)cc1.O=C(O)C(=O)O,-17.1%
5,O=C(COC(=O)c1ccc(Cl)cc1[N+](=O)[O-])NC(=O)c1ccccc1,15.1%
6,O=C1N/C(=N\N=C\c2ccco2)SC1Cc1ccc(F)cc1 (centres unmarked),14%
7,Cc1ccc(S(=O)(=O)N2CCN(C(=O)Cn3c(=O)oc4ccccc43)CC2)c(C)c1,12.2%
8,Cc1nnc(Sc2nc3c(c(=O)[nH]c(=O)n3C)n2Cc2ccccc2)s1,-24.8%
9,CCNc1nc(Cl)nc(NC(C)C)n1,12.5%
10,Cc1cc(C(=O)Nc2sc(C)c(-c3ccc(F)cc3)c2C(N)=O)no1,20.2%
11,CCOc1ccc(CNc2ccc(N3CCN(Cc4ccccc4)CC3)cc2)cc1,13.1%
12,Cn1c(C(N)=O)cnc1Sc1ncc(C(F)(F)F)cc1Cl,11.8%
13,O=C(O)C1CC=CCC1C(=O)N1CCCC1 (centres unmarked),0.477%
14,COc1ccc(/C=N/OCC(=O)N(Cc2ccccc2)c2ccccc2C(=O)O)cc1,-4.04%
15,COC(=O)c1cc(CNC(=O)c2ccccc2OCc2c(C)noc2C)ccc1OC,-18%
16,c1ccc(C2=NNC(c3ccccn3)=NN2)nc1,6.51%
17,CCCNC(=O)/C=C/C(=O)O,9.27%
18,COc1ccc(OC)c(NC(=O)c2cc(S(=O)(=O)N(C)C)ccc2N2CCCC2)c1,-68.1%
19,COc1ccc(CN2CCNC(=O)C2CC(=O)N(C)CCc2cnn(C)c2)c(F)c1 (centres unmarked),-12.1%
20,CC(=O)NC(=S)Nc1ccccc1N1CCN(C(=O)c2ccccc2)CC1,-8.1%
